Experimental data taken from the supplement of paper PMC7826260.
The list shows a part of the results. One pool of 16,384 single-stranded DNAs met each Rep nickase domain in vitro at 3 µM enzyme and 37 °C for 1 h; the strands have 90 letters, of which the middle is given. A value is the log2 ratio of uncut reads to the pool without enzyme; strong cutting gives strongly negative numbers. There is no active / inactive call. Shares of all reads are compared; where an enzyme cuts many sequences, the uncut ones exceed 0.

Tests used:
Experiment in all cases: uncleaved DNA left, log2 of reads against the no-enzyme library (log2 ratio); higher = less cleavage (more negative = more Rep cleavage of the k-mer); sequences stand for … in CTCGTCCG…ACCGGAGA
[1] = tested on: T1, Rep nickase domain of Muscovy duck circovirus
T1 sequence (protein, residues 1-111, tag omitted): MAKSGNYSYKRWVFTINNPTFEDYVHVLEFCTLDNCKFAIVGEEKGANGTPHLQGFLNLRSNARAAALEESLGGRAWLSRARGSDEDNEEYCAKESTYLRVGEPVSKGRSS
Experimental: (§1)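 A pool of 90-nt single-stranded DNAs with seven random bases just before the constant AC of the nick site (name = the seven bases) was cut by 3 µM recombinant His6-SUMO-tagged Rep nickase domain (300 nM DNA, 50 mM HEPES pH 8.0, 50 mM NaCl, 1 mM MnCl2, 1 h, 37 °C, three replicates). Uncut DNA was amplified and sequenced.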

[2] = tested on: T2, Rep nickase domain of banana bunchy top virus
T2 sequence (protein, residues 1-94, tag omitted): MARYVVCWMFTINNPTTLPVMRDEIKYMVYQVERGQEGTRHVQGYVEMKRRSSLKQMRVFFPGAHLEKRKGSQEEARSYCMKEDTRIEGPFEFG
Experimental: as §1

[3] = tested on: T3, Rep nickase domain of cabbage leaf curl virus
T3 sequence (protein, residues 1-116, tag omitted): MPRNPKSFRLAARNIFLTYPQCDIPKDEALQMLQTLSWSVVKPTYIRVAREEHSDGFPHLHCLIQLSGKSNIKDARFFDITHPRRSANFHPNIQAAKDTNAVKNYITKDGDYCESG
Experimental: as §1

[4] = tested on: T4, Rep nickase domain of chickpea chlorotic dwarf virus
T4 sequence (protein, residues 1-124, tag omitted): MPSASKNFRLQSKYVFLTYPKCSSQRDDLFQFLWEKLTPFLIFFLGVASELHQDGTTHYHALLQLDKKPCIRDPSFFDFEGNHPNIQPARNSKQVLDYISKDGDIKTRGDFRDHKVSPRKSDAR
Experimental: as §1

[5] = tested on: T5, Rep nickase domain of faba bean necrotic yellows virus
T5 sequence (protein, residues 1-98, tag omitted): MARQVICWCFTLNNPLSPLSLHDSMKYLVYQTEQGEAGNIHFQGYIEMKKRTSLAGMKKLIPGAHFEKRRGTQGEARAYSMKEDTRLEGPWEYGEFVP
Experimental: as §1

[6] = tested on: T6, Rep nickase domain of maize striate mosaic virus
T6 sequence (protein, residues 1-117, tag omitted): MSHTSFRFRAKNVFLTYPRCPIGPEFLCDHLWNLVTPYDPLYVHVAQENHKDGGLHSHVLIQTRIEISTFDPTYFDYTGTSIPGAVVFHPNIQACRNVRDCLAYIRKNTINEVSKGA
Experimental: as §1

[7] = tested on: T7, Rep nickase domain of porcine circovirus 2
T7 sequence (protein, residues 2-116, tag omitted): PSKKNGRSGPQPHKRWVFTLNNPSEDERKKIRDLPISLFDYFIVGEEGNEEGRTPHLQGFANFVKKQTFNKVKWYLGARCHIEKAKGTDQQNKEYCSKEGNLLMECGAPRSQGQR
Experimental: as §1

[8] = tested on: T8, Rep nickase domain of tomato golden mosaic virus
T8 sequence (protein, residues 1-124, tag omitted): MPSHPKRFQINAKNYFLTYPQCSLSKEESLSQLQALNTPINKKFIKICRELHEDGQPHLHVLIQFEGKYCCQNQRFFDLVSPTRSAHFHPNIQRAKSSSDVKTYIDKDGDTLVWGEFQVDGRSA
Experimental: as §1

[9] = tested on: T9, Rep nickase domain of tomato yellow leaf curl virus
T9 sequence (protein, residues 1-136, tag omitted): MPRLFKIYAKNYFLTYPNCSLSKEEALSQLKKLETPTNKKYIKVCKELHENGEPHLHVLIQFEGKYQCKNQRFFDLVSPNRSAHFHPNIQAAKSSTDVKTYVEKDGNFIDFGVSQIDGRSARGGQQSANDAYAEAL
Experimental: as §1

[10] = tested on: T10, Rep nickase domain of wheat dwarf virus
T10 sequence (protein, residues 1-137, tag omitted): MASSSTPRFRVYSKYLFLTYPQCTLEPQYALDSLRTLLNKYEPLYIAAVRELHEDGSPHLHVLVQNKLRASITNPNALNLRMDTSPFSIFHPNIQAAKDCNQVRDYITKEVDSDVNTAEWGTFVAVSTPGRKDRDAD
Experimental: as §1

Row | Sequence | uncleaved DNA left (log2) [1] | uncleaved DNA left (log2) [2] | uncleaved DNA left (log2) [3] | uncleaved DNA left (log2) [4] | uncleaved DNA left (log2) [5] | uncleaved DNA left (log2) [6] | uncleaved DNA left (log2) [7] | uncleaved DNA left (log2) [8] | uncleaved DNA left (log2) [9] | uncleaved DNA left (log2) [10]
1 | CACTAGG | 0.0336 | 0.128 | 0.13 | 0.781 | 0.085 | 0.148 | 0.175 | 0.0123 | -0.0289 | 0.161
2 | GCCTTTC | -0.17 | -0.189 | 0.064 | 0.207 | -0.164 | -0.122 | -0.154 | -0.231 | -0.0933 | -0.267
3 | TGAGATA | 0.0441 | 0.0381 | 0.0922 | -0.288 | 0.00277 | 0.556 | 0.0206 | 0.121 | -0.0848 | 0.0227
4 | TAACTTG | -0.0528 | -0.107 | -0.485 | -2.37 | -0.102 | -0.967 | -0.0779 | -0.152 | -0.0293 | -0.109
5 | ATGCCCC | -0.0523 | -0.0856 | 0.113 | 0.18 | -0.0433 | -0.178 | -0.341 | -0.216 | -0.0846 | 0.053
6 | CTGTGAC | -0.0329 | -0.013 | 0.154 | 0.187 | 0.0268 | -0.247 | 0.103 | -0.0494 | -0.0402 | -0.128
7 | CAGAGCA | 0.00751 | 0.0489 | -0.263 | -0.9 | -0.054 | -0.961 | -2.02 | 0.0185 | 0.106 | -0.0785
8 | TTCCCAT | -0.0437 | 0.068 | 0.281 | -0.406 | -0.00863 | -0.167 | -0.244 | -0.19 | 0.115 | 0.0558
9 | CTGCCCA | -0.0264 | -0.000205 | -0.16 | -0.761 | 0.0852 | -0.557 | -0.393 | -0.0424 | 0.0372 | -0.0749
10 | TCTGCCC | 0.115 | -0.0188 | 0.0791 | -0.0404 | 0.00345 | -0.146 | -0.0566 | -0.0123 | 0.0413 | -0.0127
11 | TTGCGGC | 0.0307 | -0.117 | -0.711 | -0.705 | -0.201 | -1.22 | -0.0499 | -0.164 | -0.107 | -0.178
12 | ATGGCCC | -0.133 | 0.0794 | 0.225 | 0.554 | -0.0888 | 0.403 | -0.0159 | -0.0404 | -0.0109 | -0.0902
13 | CTAGGTA | -0.00325 | 0.0839 | 0.325 | 0.892 | 0.13 | 1.16 | -0.0152 | 0.0385 | 0.0777 | 0.086
14 | CACGTTG | 0.0404 | 0.00154 | -0.372 | -0.392 | -0.0974 | -0.724 | 0.0736 | 0.0102 | 0.0345 | -0.247
15 | CCACGCT | -0.0811 | -0.0898 | -0.722 | -1.95 | -0.204 | -0.829 | -0.0793 | -0.158 | -0.0846 | -0.318
